Results from PubChem BioAssay AID686978 (National Center for Advancing Translational Sciences (NCATS), 2013).
Several values for one entry are separate records, joined by “and”; a condition that tells them apart may be missing. Identical values can stand only once. Among all 420,000 compounds or so, about 64,000 (15%) were called active. The inconclusive results got no clear call from the source; some entries with a clear call stand among them for comparison. The call rests on the fitted dose curve; in most records, active means well fitted inhibition curve with a large enough effect; inconclusive means small, poorly fitted or top-dose-only effect; inactive means flat fitted curve, though single readings scatter. A potency beside an inconclusive call is a rough fit, not a confirmed value.

Experiment: qHTS for Inhibitors of human tyrosyl-DNA phosphodiesterase 1 (TDP1): qHTS in cells in absence of CPT; further: nearly all actives have a fitted effect of over 55% in size
Settings: DT40 Tdp1-/- hTDP1 cells, no CPT, ATP luminescence, 48 h; activity change, negative = growth inhibition: at 46.2 µM (top of the series)
Procedure, shortened: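 Readout: luminescence from CellTiter-Glo after 30 min in the dark at RT. Cells: DT40 Tdp1-/- with stable hTDP1, 400/well. Exposure: compounds alone, ≥48 hr, 37 °C.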
On the % scale 0 is the no-effect control and ±100 the full control effect; potency means the concentration at half of the fitted maximal effect; tags describe the fitted curve by direction and shape.

Row | Compound | Potency | activity change, negative = growth inhibition
1 | COc1cccc(CNC(=O)C(C(=O)NCc2cccc(OC)c2)c2ncc(C(F)(F)F)cc2Cl)c1 | inconclusive: 29.1 µM [inhibitor, single point] | –
2 | CCOC(=O)N1CCN(c2cc(N3CCN(CC)CC3)c(F)cc2[N+](=O)[O-])CC1C (configuration not stated) | inconclusive: 29.1 µM [inhibitor, single point] | –
3 | Cc1ccc(S(=O)(=O)/N=C(/NC(=S)Nc2ccccc2)c2ccccc2)cc1 | inactive | –
4 | CC1(C(=O)NCc2ccc(C(F)(F)F)cc2)CCN1Cc1ccc(-c2ccccc2)o1 (configuration not stated) | inconclusive: 25.9 µM [inhibitor, single point] | –
5 | COc1ccc(NC(=O)c2c(-c3ccc(C)cc3)nnc3ccccc23)cc1Cl | inactive | –
6 | O=C(c1nc2ccccn2c1CN1CCCC(OCc2ccccc2)C1)N1CCCC1 (configuration not stated) | inconclusive: 16.4 µM [inhibitor, single point] | –
7 | N#C/C(C(=O)Nc1ccc(Cl)cc1)=C(/S)Nc1ccccc1 | active: 11.6 µM | –
8 | COc1ccccc1C(=O)Nc1nnc(SCc2cc(=O)c3cc(Cl)ccc3[nH]2)s1 | inconclusive: 29.1 µM [inhibitor, single point] | –
9 | CCN(C(=O)c1cccs1)C1CCS(=O)(=O)C1 (configuration not stated) | inconclusive: 0.0411 µM [inhibitor, full curve] | –
10 | Cc1ccc(-c2ccc(C(=O)N3CCc4nnc(CNC(=O)c5ccccc5)n4CC3)cc2)cc1 | inconclusive: 25.9 µM [inhibitor, single point] | –
11 | O=C(CNC(=O)c1ccccc1F)OCc1cc(=O)n2ccsc2n1 | inactive | –
12 | CCC1Nc2ncnc(N3CCOCC3)c2N(Cc2ccc(Br)cc2)C1=O (configuration not stated) | inconclusive: 18.4 µM [inhibitor, single point] and inconclusive: 14.6 µM [inhibitor, single point] | –
13 | CCCCNC(=S)NNC(=O)c1ccncc1 | inactive | –
14 | Cc1ccc(N2NC(C)(c3cccs3)NC2=S)cc1 (configuration not stated) | inconclusive: 8.2 µM [inhibitor, partial curve] | –
15 | CN(C)c1ncnc2c1ncn2[C@H]1CN(Cc2ccc(-c3ccccc3)cc2)C[C@@H](CO)O1 | active: 14.6 µM | –
16 | COc1cccc(S(=O)(=O)Nc2ccc(C(=O)Nc3ccncc3)cc2)c1 | inconclusive: 23.1 µM [inhibitor, partial curve, poor fit] | –
17 | Cc1c(N=C/C=C2\N(C)c3ccccc3C2(C)C)c(=O)n(-c2ccccc2)n1C | inconclusive: 23.1 µM [inhibitor, partial curve] | –
18 | CC12CCC(C(=O)CC1=O)C2(C)C (configuration not stated) | inactive | –
19 | Cc1sc2ncnc(Nc3ccccc3)c2c1C | inconclusive: 29.1 µM [inhibitor, single point] | –
20 | CC(=O)NNc1nc(-c2ccc(C)cc2)cs1 | inactive | –
21 | CCN1CCN(CCn2c(=S)[nH]c3ccccc3c2=O)CC1 | inactive | –
22 | COc1cc(OC)cc(C(=O)NCC(=O)OCC(=O)N2CC(C)CC(C)C2)c1 (configuration not stated) | inactive | –
23 | Cc1noc(NS(=O)(=O)c2ccc(NC(=O)CSc3nc4ccccc4s3)cc2)c1C | inactive | –
24 | CCOC(=O)Cc1csc(NC(=O)C(C)(C)C)n1 | inactive | –
25 | CN(C)CCCSc1nc2ccccc2s1 | inactive | –
26 | CC(=O)N1CCc2c(sc(NC(=O)c3ccc(S(=O)(=O)N(C)CC4CCCO4)cc3)c2C(N)=O)C1 (configuration not stated) | inconclusive: 29.1 µM [inhibitor, single point] | –

Row | Compound | Potency | activity change, negative = growth inhibition
27 | O=S(=O)(c1ccccc1)c1nc(-c2ccc(Cl)cc2Cl)oc1N1CCCCC1 | active: 13 µM | –
28 | COc1ccc(C(C)(C)C)cc1NC(=O)COC(=O)C(C)C | inactive | –
29 | CCOC(=O)c1cnc(SCC(=O)c2ccc(Cl)cc2)nc1N | inconclusive: 29.1 µM [inhibitor, single point] | –
30 | CCOC(=O)CNC(=O)CSc1nnc(C)c(=O)[nH]1 | inactive | –
31 | CN1/C(=C/C=C/c2n(C)c3cc([N+](=O)[O-])c([N+](=O)[O-])cc3[n+]2C)C(C)(C)c2ccccc21 | active: 3.66 µM | –
32 | Cc1ccc(C)c2[nH]c(=O)c(CN(Cc3nnnn3C3CCCCC3)CC3CCCO3)cc12 (configuration not stated) | active: 23.1 µM | –
33 | O=C(C1CCCCC1)N1C[C@@H](n2cc(C3CC3)nn2)[C@H](O)C[C@@H]1c1ccc(Cl)cc1 | inconclusive: 18.4 µM [inhibitor, single point] | –
34 | CC(C)c1ccccc1OS(N)(=O)=O | inactive | –
35 | Cc1ccc2c(c1)C(c1ccccc1)N(C(=O)c1ccc3c(c1)OCO3)CC(=O)N2 (configuration not stated) | inconclusive: 29.1 µM [inhibitor, single point] | –
36 | Cc1ccc(-c2nc(N/N=C/c3ccncc3)c3ccccc3n2)cc1 | active: 18.4 µM | –
37 | O=C(c1ccccc1)N1CCN(C(=O)c2nn3c(C(F)(F)F)cc(-c4ccco4)nc3c2Br)CC1 | inconclusive: 23.1 µM [inhibitor, single point] | –
38 | O=S(=O)(NN=C1CCCCCCC1)c1ccc(Br)cc1 | inactive | –
39 | Oc1[nH]c2ccccc2c1N=NC(=S)NCCc1ccccc1 | inconclusive: 14.6 µM [inhibitor, partial curve, poor fit] | –
40 | CCCCCCC(C)n1[nH]c(=O)c2c(C)cc(C)nc21 (configuration not stated) | inactive | –
41 | CC(C)NC(=O)Cn1c(SCC(=O)N2c3ccccc3CC2C)nc2ccccc21 (configuration not stated) | inconclusive: 22.4 µM [inhibitor, single point] | –
42 | Cn1c(CC(=O)Nc2ccccc2Cl)nnc1SCC(=O)NC1CCCCC1 | inactive | –
43 | Cc1ccc2nc(-c3ccc(NS(=O)(=O)c4c(C)n(C)c(=O)n(C)c4=O)cc3)sc2c1 | inconclusive: 29.1 µM [inhibitor, single point] | –
44 | CC1=C(C(=O)N(C)C)CC(CC(=O)NC(c2ccccc2)c2ccccc2)C(=O)N1Cc1ccc(C(C)(C)C)cc1 (configuration not stated) | active: 23.1 µM | –
45 | Cc1ccc(CN2CCN(C3CCN(C(=O)c4ccccc4)CC3)C(=O)C2=O)cc1 | inactive | –
46 | O=C(N/N=C/c1c(F)cccc1Cl)C(=O)N1CCCCCC1 | inactive | –
47 | C/C(=N\NC(=O)c1cccnc1)c1c(O)cc(C)oc1=O | inactive | –
48 | Cc1nc(-c2ccc(Cl)cc2)sc1CCNC(=O)Cc1ccc(F)cc1 | active: 14.6 µM | –
49 | C=C(C)COc1ccc(-c2[nH]ncc2-c2ccc(OC)cc2)c(O)c1 | inconclusive: 23.1 µM [inhibitor, single point] | –
50 | O=C(NCCCCNC(=O)c1ccccc1F)c1ccccc1F | inconclusive: 25.9 µM [inhibitor, single point] | –
51 | Cc1ccc(C(=O)Nc2cccc(O)c2)cc1S(=O)(=O)N1CCCCCC1 | active: 1.16 µM | –
52 | COc1ccc(CNc2ccc3c(c2)nc(C)n3C)cc1 | – | inconclusive: -36.5% [inhibitor]

Row | Compound | Potency | activity change, negative = growth inhibition
53 | COC(=O)C1=C(N)Oc2cc(N(C)C)ccc2C1c1ccccc1OC (configuration not stated) | active: 4.61 µM | –
54 | CCn1c(COc2cccc(OC)c2)nnc1SCC(=O)N1CCOCC1 | inactive | –
55 | CC(C(=O)OCC(=O)N1CCCCC1)N1C(=O)c2ccccc2C1=O (configuration not stated) | inconclusive: 29.1 µM [inhibitor, single point] | –
56 | CCc1ccccc1N(CC(=O)NC1CCCCC1)C(=O)CCCC(=O)Nc1ccccn1 | inconclusive: 20.6 µM [inhibitor, single point] | –
57 | COc1ccc(CNC(=O)C2(C)Cc3c(-c4ccccc4)ccnc3O2)cc1OC (configuration not stated) | inconclusive: 16.4 µM [inhibitor, single point] | –
58 | COc1cccc(Nc2nc(CN)cs2)n1 | inconclusive: 18.4 µM [inhibitor, single point] | –
59 | C=Cc1ccc(Cn2c(C)c(C(=O)NCc3cccc([N+](=O)[O-])c3)sc2=O)cc1 | inconclusive: 29.1 µM [inhibitor, single point] | –
60 | Cc1cc2cc(C(c3nnnn3Cc3ccco3)N3CCc4ccccc43)c(=O)[nH]c2cc1C (configuration not stated) | inconclusive: 20.6 µM [inhibitor, single point] | –
61 | S=c1[nH]cc(-c2ccccc2)[nH]1 | inactive | –
62 | CN1CCN(CCC(=O)N/N=C/c2cc3c(cc2[N+](=O)[O-])OCO3)CC1 | inactive | –
63 | CNC(=O)/C(C#N)=C/c1cccc(Oc2ccccc2)c1 | active: 23.1 µM | –
64 | COc1ccc(NC(=O)c2cnc3n(c2=O)CCS3)cc1OC | inactive | –
65 | O=C(NCC(c1ccco1)N1CCCCC1)c1ccc(COc2ccc(Cl)cc2)cc1 (configuration not stated) | active: 13 µM | –
66 | O=C(N/N=C/c1ccco1)c1cc2ccccc2o1 | inactive | –
67 | CC(C(=O)NN)c1ccc([N+](=O)[O-])cc1 (configuration not stated) | inactive | –
68 | Cc1cc(=O)[nH]c(Nc2cccc(C(F)(F)F)c2)n1 | active: 23.1 µM | –
69 | CC(=O)c1ccccc1C(=O)N1CCC(CCC(=O)NCc2ccc(F)cc2)CC1 | inconclusive: 32.6 µM [inhibitor, single point] | –
70 | Cc1ccc(-c2cnc(SCCNC(=O)c3ccco3)[nH]2)cc1 | inconclusive: 18.4 µM [inhibitor, single point] | –
71 | CCN(CC)CCCNC(=O)c1cn(CC)c2ccc(S(=O)(=O)N3CCc4ccccc4C3)cc2c1=O | active: 29.1 µM | –
72 | Clc1cccc2c1CN(C1=NCCN1)C2 | inconclusive: 23.7 µM [inhibitor, partial curve, poor fit] | –
73 | COC(=O)c1ccc(NC(=O)CSc2nnc(CNc3ccc(OC)cc3)n2C)cc1 | inactive | –
74 | C=C(C)COc1ccc(-c2ncncc2-c2ccccc2OC)c(O)c1 | inconclusive: 29.1 µM [inhibitor, single point] | –
75 | CCCC(=O)Nc1ccc2oc(-c3cncc(Br)c3)nc2c1 | inconclusive: 14.6 µM [inhibitor, single point] | –
76 | COc1ccc(CC(=O)n2nc(-c3ccc(Cl)cc3)nc2NCc2ccco2)cc1 | active: 18.4 µM | –
77 | COc1ccc(N2CCSC2C(=O)NN)cc1 (configuration not stated) | – | inconclusive: -30% [inhibitor]
